Results as given in the supplement of paper PMC8728848.
The other results are listed elsewhere or left out.

Legend:
Experiment in all cases: glycan array binding signal (z-score within array); higher = stronger binding
Conditions in all cases: glycan notation: IUPAC condensed, linker removed; mutation: Y228W
[1] = target: Fuc(a1-2)[Gal(a1-3)]Gal(b1-4)GlcNAc(b1-2)Man(a1-3)[Fuc(a1-2)[Gal(a1-3)]Gal(b1-4)GlcNAc(b1-2)Man(a1-6)]Man(b1-4)GlcNAc(b1-4)GlcNAc
Method in brief: (§1)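 The binding signal is a Z-score computed within each array and averaged over linkers. Arrays of the same protein sequence at different concentrations or buffers were also averaged together. Data originate from 3228 arrays in the Consortium for Functional Glycomics database, kept only where the protein sequence was available.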

[2] = target: Fuc(a1-2)[Gal(a1-3)]Gal(b1-4)GlcNAc(b1-2)Man(a1-3)[Fuc(a1-2)[Gal(a1-3)]Gal(b1-4)GlcNAc(b1-2)Man(a1-6)]Man(b1-4)GlcNAc(b1-4)[Fuc(a1-6)]GlcNAc
Method in brief: as §1

[3] = target: Fuc(a1-2)[Gal(a1-3)]Gal(b1-4)GlcNAc(b1-3)GalNAc
Method in brief: as §1

[4] = target: Fuc(a1-2)[Gal(a1-3)]Gal(b1-4)GlcNAc(b1-3)[Fuc(a1-2)[Gal(a1-3)]Gal(b1-4)GlcNAc(b1-6)]GalNAc
Method in brief: as §1

[5] = target: Fuc(a1-2)[Gal(a1-3)]Gal(b1-4)GlcNAc(b1-6)GalNAc
Method in brief: as §1

[6] = target: Fuc(a1-2)[Gal(a1-3)]Gal(b1-4)[Fuc(a1-3)]Glc
Method in brief: as §1

[7] = target: Fuc(a1-2)[Gal(a1-3)]Gal(b1-4)[Fuc(a1-3)]GlcNAc
Method in brief: as §1

[8] = target: Fuc(a1-2)[Gal(a1-3)]Gal(b1-4)[Fuc(a1-3)]GlcNAc(b1-3)GalNAc
Method in brief: as §1

[9] = target: Fuc(a1-2)[Gal(a1-4)]Gal(b1-4)GlcNAc
Method in brief: as §1

[10] = target: Fuc(a1-2)[GalNAc(a1-3)]Gal
Method in brief: as §1

[11] = target: Fuc(a1-2)[GalNAc(a1-3)]Gal(b1-3)GalNAc(a1-3)[Fuc(a1-2)]Gal(b1-4)GlcNAc
Method in brief: as §1

[12] = target: Fuc(a1-2)[GalNAc(a1-3)]Gal(b1-3)GalNAc(b1-3)Gal(a1-4)Gal(b1-4)Glc
Method in brief: as §1

[13] = target: Fuc(a1-2)[GalNAc(a1-3)]Gal(b1-3)GlcNAc
Method in brief: as §1

[14] = target: Fuc(a1-2)[GalNAc(a1-3)]Gal(b1-3)GlcNAc(b1-2)Man(a1-3)[Fuc(a1-2)[GalNAc(a1-3)]Gal(b1-3)GlcNAc(b1-2)Man(a1-6)]Man(b1-4)GlcNAc(b1-4)GlcNAc
Method in brief: as §1

[15] = target: Fuc(a1-2)[GalNAc(a1-3)]Gal(b1-3)GlcNAc(b1-2)Man(a1-3)[Fuc(a1-2)[GalNAc(a1-3)]Gal(b1-3)GlcNAc(b1-2)Man(a1-6)]Man(b1-4)GlcNAc(b1-4)[Fuc(a1-6)]GlcNAc
Method in brief: as §1

[16] = target: Fuc(a1-2)[GalNAc(a1-3)]Gal(b1-3)GlcNAc(b1-3)GalNAc
Method in brief: as §1

[17] = target: Fuc(a1-2)[GalNAc(a1-3)]Gal(b1-3)GlcNAc(b1-6)GalNAc
Method in brief: as §1

[18] = target: Fuc(a1-2)[GalNAc(a1-3)]Gal(b1-4)Glc
Method in brief: as §1

[19] = target: Fuc(a1-2)[GalNAc(a1-3)]Gal(b1-4)GlcNAc
Method in brief: as §1

[20] = target: Fuc(a1-2)[GalNAc(a1-3)]Gal(b1-4)GlcNAc(b1-2)Man
Method in brief: as §1

[21] = target: Fuc(a1-2)[GalNAc(a1-3)]Gal(b1-4)GlcNAc(b1-2)Man(a1-3)[Fuc(a1-2)[GalNAc(a1-3)]Gal(b1-4)GlcNAc(b1-2)Man(a1-6)]Man(b1-4)GlcNAc(b1-4)GlcNAc
Method in brief: as §1

[22] = target: Fuc(a1-2)[GalNAc(a1-3)]Gal(b1-4)GlcNAc(b1-2)Man(a1-3)[Fuc(a1-2)[GalNAc(a1-3)]Gal(b1-4)GlcNAc(b1-2)Man(a1-6)]Man(b1-4)GlcNAc(b1-4)[Fuc(a1-6)]GlcNAc
Method in brief: as §1

[23] = target: Fuc(a1-2)[GalNAc(a1-3)]Gal(b1-4)GlcNAc(b1-3)Gal(b1-4)GlcNAc
Method in brief: as §1

[24] = target: Fuc(a1-2)[GalNAc(a1-3)]Gal(b1-4)GlcNAc(b1-3)Gal(b1-4)GlcNAc(b1-3)Gal(b1-4)GlcNAc
Method in brief: as §1

[25] = target: Fuc(a1-2)[GalNAc(a1-3)]Gal(b1-4)GlcNAc(b1-3)GalNAc
Method in brief: as §1

[26] = target: Fuc(a1-2)[GalNAc(a1-3)]Gal(b1-4)GlcNAc(b1-3)[Fuc(a1-2)[GalNAc(a1-3)]Gal(b1-4)GlcNAc(b1-6)]GalNAc
Method in brief: as §1

[27] = target: Fuc(a1-2)[GalNAc(a1-3)]Gal(b1-4)GlcNAc(b1-6)GalNAc
Method in brief: as §1

[28] = target: Fuc(a1-2)[GalNAc(a1-3)]Gal(b1-4)[Fuc(a1-3)]GlcNAc
Method in brief: as §1

[29] = target: Fuc(a1-2)[GalNAc(a1-3)]Gal(b1-4)[Fuc(a1-3)]GlcNAc(b1-3)GalNAc
Method in brief: as §1

[30] = target: Fuc(a1-2)[GalNAc(a1-4)]Gal(b1-4)GlcNAc
Method in brief: as §1

B1: Epa1-NP-mutant-Y228W (Candida glabrata), Q6VBJ0 (protein)
chain: MILNPALFLNKCVCIYTTLILLLLTNGGYATSSNDISLASKDPTTFPLGCSPDITTPKKGLSMELYSYDFRKKGSYPCWDAAYLDPNYPRTGYKSHRLLAKVDGVTGNINFYYHATKGCTPQLGHLPASYNYPKPLTMTNFTMLLYGYFRPKVTGFHTFTISADDLLFVNFGAGNAFDCCRRDSSADHFGNYQAYAIWGSKTAKDELTVHLDAGVYYPIRLFYNNREWDGALSFTFKTESNENTVSDFSEYFFSLDDTEEGCPGLISYDSSCASVKTSKIIGIDYHTETPNENLVPITKTIYHLGIPCTGTTTTPLCGSGFYDPLANKCVTINTSSTSSVTKTTSHTTSKEVSFHSSISSQKTLIPKSIPSPYGPIKSQSIPTEMETSSEISSSEYAFSDVISTPSHSPYTKKHSSLNSSSYTSTVIHSLTSYSISQGIFSTSLSEQNITSKSSTDKFSTATSMSNNITQSSIIISQFSTNNENYTTTSMHTSSDKISTETLNNSISTTTSILFSNSSTILKNNTTIISSDKDTHYHPVNPTIVCSTNKTEIICASITQPSISNSNNHWSSSVLKFNSTTVRSTLPSSAGSNETSINVPFSSSTESNTSTSSTSTSNSKMVRSTLPSSAGSNETSISVPFSSSTESNTSTSSTSTSNSKMVRSTLPSSAGSNETSINVPFSSSTESNTSTSSTSTSNSKTVRSTPFSSAGIIMTSLSQRNNKSASSYASSNSKCYNTADSCRKVHSTPSYLLTSSYTSEGVDYDCSLVSTKLKINDTNCVNNKHTTKSCLKTSVTTTIPTLEIKTARKSSSNTIGLHSYPTSSPNKSISSAPIIGYISSFKTIKTASPSYQTSDLTTITTITSLNNPGSTAVENTHESNDKSRKTSSNDISSKHSVIKETKDAVESSNKSHQTNTLKCSSIIIASSSHNSYESLGGTTLTLTLSKVYSPQNNDTLPFLEISEVNPSRTVLPESSKMMQYLTSTEERNKTARNTIATNIVSISTFHFEGEGNAIRMGYTQLLLMLIGIIVMNIGT
[1]
  glycan array binding signal (z-score): -0.217
[2]
  glycan array binding signal (z-score): -0.252
[3]
  glycan array binding signal (z-score): -0.223
[4]
  glycan array binding signal (z-score): -0.044
[5]
  glycan array binding signal (z-score): -0.111
[6]
  glycan array binding signal (z-score): -0.252
[7]
  glycan array binding signal (z-score): -0.288
[8]
  glycan array binding signal (z-score): -0.436
[9]
  glycan array binding signal (z-score): -0.165
[10]
  glycan array binding signal (z-score): -0.351
[11]
  glycan array binding signal (z-score): -0.099
[12]
  glycan array binding signal (z-score): -0.281
[13]
  glycan array binding signal (z-score): -0.247
[14]
  glycan array binding signal (z-score): -0.213
[15]
  glycan array binding signal (z-score): -0.159
[16]
  glycan array binding signal (z-score): -0.104
[17]
  glycan array binding signal (z-score): -0.421
[18]
  glycan array binding signal (z-score): -0.093
[19]
  glycan array binding signal (z-score): -0.193
[20]
  glycan array binding signal (z-score): -0.144
[21]
  glycan array binding signal (z-score): -0.084
[22]
  glycan array binding signal (z-score): -0.254
[23]
  glycan array binding signal (z-score): -0.161
[24]
  glycan array binding signal (z-score): -0.038
[25]
  glycan array binding signal (z-score): -0.323
[26]
  glycan array binding signal (z-score): -0.236
[27]
  glycan array binding signal (z-score): -0.369
[28]
  glycan array binding signal (z-score): -0.138
[29]
  glycan array binding signal (z-score): -0.1
[30]
  glycan array binding signal (z-score): -0.214
